# Laboratory results taken from article PMC4336329 (PLoS ONE, 2015).
# Out of some 310,000 compounds screened, about 14,000 (4.5%) showed an effect of 50% or more. The effect is printed as a negative number. This is one part of the list.
# Biological target: human ether-à-go-go-related gene (hERG) potassium channel (human, UniProt Q12809)
# Test: primary screen, population patch clamp on CHO cells stably expressing hERG
# 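Note: peak tail current of the secondary pulse compared with the same well before compound.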
# Chain of human ether-à-go-go-related gene (hERG) potassium channel (Q12809 whole entry, looked up): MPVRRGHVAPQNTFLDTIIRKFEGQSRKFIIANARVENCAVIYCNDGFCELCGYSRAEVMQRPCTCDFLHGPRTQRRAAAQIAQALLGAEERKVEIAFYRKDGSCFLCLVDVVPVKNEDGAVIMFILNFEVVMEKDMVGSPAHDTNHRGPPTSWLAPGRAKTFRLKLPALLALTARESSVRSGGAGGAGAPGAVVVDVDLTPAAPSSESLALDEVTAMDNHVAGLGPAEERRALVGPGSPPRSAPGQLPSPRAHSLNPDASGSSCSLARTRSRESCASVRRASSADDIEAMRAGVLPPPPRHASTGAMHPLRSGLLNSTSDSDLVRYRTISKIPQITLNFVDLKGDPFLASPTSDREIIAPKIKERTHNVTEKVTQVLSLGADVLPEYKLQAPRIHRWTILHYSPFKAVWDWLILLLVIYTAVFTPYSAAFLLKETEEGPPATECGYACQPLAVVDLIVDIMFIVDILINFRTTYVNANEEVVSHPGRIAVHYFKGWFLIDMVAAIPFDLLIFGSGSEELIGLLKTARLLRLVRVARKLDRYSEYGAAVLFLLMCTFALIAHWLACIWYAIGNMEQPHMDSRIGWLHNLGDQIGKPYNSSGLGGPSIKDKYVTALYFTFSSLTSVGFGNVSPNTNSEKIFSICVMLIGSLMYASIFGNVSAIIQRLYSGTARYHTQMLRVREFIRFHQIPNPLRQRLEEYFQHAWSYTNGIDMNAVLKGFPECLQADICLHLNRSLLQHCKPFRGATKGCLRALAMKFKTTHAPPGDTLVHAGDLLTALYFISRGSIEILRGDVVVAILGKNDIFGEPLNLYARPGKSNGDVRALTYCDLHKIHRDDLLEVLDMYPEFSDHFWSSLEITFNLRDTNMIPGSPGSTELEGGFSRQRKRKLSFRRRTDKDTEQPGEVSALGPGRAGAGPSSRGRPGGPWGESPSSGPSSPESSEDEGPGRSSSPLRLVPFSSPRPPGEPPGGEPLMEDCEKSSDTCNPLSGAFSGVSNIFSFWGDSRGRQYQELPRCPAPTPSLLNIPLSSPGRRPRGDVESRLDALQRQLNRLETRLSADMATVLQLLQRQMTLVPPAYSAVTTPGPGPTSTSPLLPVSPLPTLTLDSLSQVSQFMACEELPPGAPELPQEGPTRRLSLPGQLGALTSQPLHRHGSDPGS
row,SMILES,"hERG current change (%, negative = inhibition) at 10uM [%]"
1,Cc1ccc(NS(=O)(=O)c2ccc(C(=O)NCCCN3CCCC3=O)cc2)cc1C,0.842
2,Cc1ccccc1N1C(=O)Cc2ccccc2C1=O,15.1
3,O=c1c2ccccc2[nH]c(=S)n1CCN1CCCC1,-19.1
4,COc1ccccc1NC(=O)Cn1ccn(-c2cccc3ccccc23)c(=O)c1=O,-14.6
5,CCn1cc(C(=O)N2CCOCC2)c(=O)c2cc(S(=O)(=O)N(C)C)ccc21,1.21
6,CCOC(=O)CSc1nc2c(sc(=S)n2-c2ccccc2)c(=O)[nH]1,-8.56
7,O=C(c1ccccc1)N1CCC(c2nc(-c3ccc(S(=O)(=O)N4CCOCC4)cc3)no2)CC1,-60.8
8,O=C(NN1C(=O)C2C3C=CC([C@H]4CC34)[C@@H]2C1=O)c1ccc(Br)cc1 (some centres unmarked),8.18
9,Cc1nc2ccc(NS(=O)(=O)c3ccc(F)cc3F)cc2s1,-28.3
10,O=C(Nc1c(C(=O)Nc2ccccc2)cnn1-c1ccccc1)c1ccco1,-10.2
11,CCOCCCNC(=O)c1ccc2c(c1)N(CC)C(=O)c1ccccc1S2=O (centres unmarked),16.2
12,COCc1cc(C)nc(SCC(=O)Oc2ccccc2)c1C#N,9.45
13,CC(C)(C)C(=O)Nc1nc(C2CCCN2S(=O)(=O)c2ccc(Cl)cc2)cs1 (centres unmarked),-30.5
14,CCc1nnc(NC(=O)CN2CCN(Cc3cccc(F)c3)CC2)s1,-0.435
15,O=C(N/N=C/c1ccc[nH]1)c1cc(-c2cccs2)nc2ccccc12,0.659
16,O=C(C1CCC(=O)N(C2CC2)C1)N1CCC(Oc2ccccc2F)CC1 (centres unmarked),2.26
17,CC(C)c1ccc(S(=O)(=O)c2cc3cc(Br)ccc3oc2=O)cc1,-2.26
18,COc1ccccc1OCCNC(=O)CSC(=S)N1CCCC1,-4.17
19,CCC1=C2CC[C@H]3C(=O)N(CC)C(=O)[C@H]3[C@H]2[C@@]2(Cc3ccccc3)C(=NCc3ccccc3)OC(=O)N2C1=O,-25
20,CCOC(=O)C1CCCN(C(=O)C2CCN(S(=O)(=O)N3CCC4(CC3)OCCO4)CC2)C1 (centres unmarked),3.08
21,CC1Sc2ccc(C(=O)Nc3cc(S(C)(=O)=O)ccc3Cl)cc2NC1=O (centres unmarked),3.5

row,SMILES,"hERG current change (%, negative = inhibition) at 10uM [%]"
1,CC1(C)CC(=O)C(C(c2ccncc2)C2C(=O)CC(C)(C)CC2=O)C(=O)C1,3.95
2,COc1ccc(Nc2nc3ccc(C)cn3c(=O)c2/C=N/O)cc1,26.6
3,CS(=O)(=O)O.Cc1c(O)cccc1C(=O)N[C@@H](CSc1ccccc1)[C@H](O)CN1C[C@H]2CCCC[C@H]2C[C@H]1C(=O)NC(C)(C)C,-4.69
4,CN(C)CC[n+]1ccc(C(=O)c2ccccc2)cc1.Cl.[Cl-],25.4
5,O=C(c1cccnc1)N1CCCC(Nc2ccc(F)cc2)C1 (centres unmarked),7.99
6,Cl.N=c1c2c(n(Cc3ccc(Cl)cc3Cl)c3c1CCC3)CCCC2,-29
7,Cc1ccc2oc(C(=O)N(C)Cc3ccon3)c(C)c2c1,4.23
8,Cc1ccc(S(=O)(=O)NCCNC(=O)CN2CCCC2)cc1,-11.9
9,O=C(c1ccc(CN2CCOCC2)cc1)N1CCN(c2ccccc2F)CC1,-3.33
10,CC(=O)NC1(NC(C)=O)CCN(C)CC1,11
11,N/C(=N\OC(=O)CC(c1ccccc1)c1ccccc1)c1cccnc1,11.1
12,COc1cccc(C2c3[nH]c4ccccc4c3CCN2C(=O)Cn2cncn2)c1OC (centres unmarked),0.145
13,Fc1ccc(Cn2c(SCc3ccc(F)c(C(F)(F)F)c3)nnc2C(F)(F)F)cc1,-4.63
14,COc1ccc(CN(CCc2ccccc2)Cc2ccccc2)cc1OC.O=C(O)C(=O)O,-9.99
15,O=C(COc1ncnc2ccccc12)Nc1cc([N+](=O)[O-])ccc1Cl,28
16,CCN(CC)CCNC(=O)C1c2ccccc2C(=O)N(C)C1c1cn(C)c2ccccc12 (centres unmarked),-19.5
17,CC(C)(C)c1cc(C(=O)O)c(CN2CCCCC2)o1.Cl,-23.5
18,O=C(Nc1ccccc1C(=O)NCc1ccco1)Nc1cccc2ccccc12,25.1
19,O=C(Nc1ccc(F)cc1F)c1cccc(C(=O)Nc2ccc(F)cc2F)n1,13.2
20,Cc1ccccc1NC(=O)Cc1nnc(SCC(=O)NC2CCCCC2)n1C,19.5
